From PMC4336329 (PLoS ONE, 2015)
Among all 310,000 compounds or so, about 2,200 (0.71%) showed an effect of 50% or more. The effect is printed as a negative number. The list shows a part of the results.

molecular target: human ether-à-go-go-related gene (hERG) potassium channel (human, UniProt Q12809); assay: primary screen, population patch clamp on CHO cells stably expressing hERG
Sequence (Q12809 whole entry, looked up): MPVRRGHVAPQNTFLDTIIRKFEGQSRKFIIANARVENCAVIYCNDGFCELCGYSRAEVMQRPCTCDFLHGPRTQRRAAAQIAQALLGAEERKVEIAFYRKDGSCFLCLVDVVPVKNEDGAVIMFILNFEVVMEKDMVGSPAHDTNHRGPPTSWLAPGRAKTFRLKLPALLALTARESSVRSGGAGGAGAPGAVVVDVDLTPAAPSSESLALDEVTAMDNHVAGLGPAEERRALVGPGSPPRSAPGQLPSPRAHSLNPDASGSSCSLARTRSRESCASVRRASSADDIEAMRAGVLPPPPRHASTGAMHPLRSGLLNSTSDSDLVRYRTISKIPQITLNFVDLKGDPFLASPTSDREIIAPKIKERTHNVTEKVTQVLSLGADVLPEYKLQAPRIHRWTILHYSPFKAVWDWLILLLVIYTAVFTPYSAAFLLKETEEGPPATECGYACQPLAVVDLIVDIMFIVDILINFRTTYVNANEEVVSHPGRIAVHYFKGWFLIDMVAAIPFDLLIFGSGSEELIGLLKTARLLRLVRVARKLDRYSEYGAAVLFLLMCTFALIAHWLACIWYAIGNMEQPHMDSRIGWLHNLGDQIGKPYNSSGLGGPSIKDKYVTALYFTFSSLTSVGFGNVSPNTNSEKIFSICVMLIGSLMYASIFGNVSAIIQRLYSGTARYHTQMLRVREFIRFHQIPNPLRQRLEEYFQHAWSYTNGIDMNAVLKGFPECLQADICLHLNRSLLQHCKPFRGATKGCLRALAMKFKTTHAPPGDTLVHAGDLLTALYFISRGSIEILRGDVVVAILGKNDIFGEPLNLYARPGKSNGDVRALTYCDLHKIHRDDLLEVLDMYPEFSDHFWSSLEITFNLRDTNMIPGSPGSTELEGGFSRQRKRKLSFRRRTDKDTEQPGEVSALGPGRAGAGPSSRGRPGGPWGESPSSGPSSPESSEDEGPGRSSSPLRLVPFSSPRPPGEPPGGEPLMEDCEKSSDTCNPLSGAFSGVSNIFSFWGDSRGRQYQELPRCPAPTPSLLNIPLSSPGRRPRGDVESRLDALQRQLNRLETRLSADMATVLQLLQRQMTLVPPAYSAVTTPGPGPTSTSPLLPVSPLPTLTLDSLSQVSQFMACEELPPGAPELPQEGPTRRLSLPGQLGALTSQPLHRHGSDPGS

Point of comparison: CC(NC(=O)C1CCC(CNC(=O)[C@@H]2Cc3ccccc3CN2)CC1)c1ccccc1 (stereo partly shown), “hERG current change (%, negative = inhibition) at 1uM” value 15.8%. Against it:
- CC(C)OC(=O)Cn1c(-c2ccccc2)c(-c2ccccc2)nnc1=O — higher, 18%
- C=CCc1ccccc1OCC(O)CN1C(=O)c2ccccc2C1=O (stereo not shown) — lower, -1.02%
- O=C(Cc1cccc2ccccc12)Nc1cc(Cl)ccc1C(=O)O — higher, 16.9%
- Cc1ccc(S(=O)(=O)CCc2nnc(N)s2)cc1C — lower, 15.2%
- COCCN(C(=O)Cc1ccc(OC)c(OC)c1)c1nc(-c2cc(OC)ccc2OC)cs1 — lower, 7.34%
- Cc1cccc(C)c1NC(=O)c1sc(Cl)nc1C — lower, 7.42%
- COc1ccc2sc3ccccc3c(=O)c2c1 — lower, 7.65%
- Cc1cc(C)c(C)c(OC(=O)c2sc(Cl)nc2C)c1 — lower, 9.78%
- CCN(CC(=O)Nc1ccc(OC)cc1)C(=O)CSCC(=O)Nc1cc(C)on1 — lower, 14%
- CCN(CC(=O)Nc1c(F)cccc1F)C(=O)C1CC1C (stereo not shown) — lower, 7.94%
- CCCn1cc2c(c1-c1ccc(C)cc1)c(=O)n(C)c(=O)n2C — lower, -2.98%
- Cc1cc(=O)[nH]c(/N=C(\N)Nc2ccc(SC(F)F)cc2)n1 — lower, 1.96%
- COC(C(=O)Nc1ccnn1C1CCN(C(=O)c2cccc(F)c2)CC1)c1ccccc1 (stereo not shown) — lower, 13.1%
- Cc1cccc(NS(=O)(=O)c2cccc(C(=O)N3CCN(C/C=C/c4ccccc4)CC3)c2)c1 — lower, 3.68%
- Cc1nnc(Oc2ccccc2)c2ccccc12 — lower, 0.148%
- CCn1cc(C(=O)OCC(=O)c2cc(C)n(-c3ccccc3)c2C)c(=O)c2ccc(C)nc21 — lower, 12.9%
- CCCC(=O)Nc1ccc(C(=O)NNC(=S)NC(=O)c2ccc(Br)o2)cc1 — lower, 7.94%
- N#Cc1ccc(C(=O)Nc2cc(S(=O)(=O)Nc3ccc(Cl)cc3)ccc2N2CCCCC2)cc1 — lower, 15.7%
- O=C1NC(C(=O)O)=CC(c2cccc(Cl)c2Cl)N1 (stereo not shown) — lower, 13.3%
- CCN(CC)S(=O)(=O)c1cccc(C(=O)NC(C(=O)Nc2nnc(C)s2)C(C)C)c1 (stereo not shown) — lower, 5.37%
- O=C(COC(=O)c1ccc2c(c1)S(=O)(=O)c1ccccc1C2=O)NC1CC1 — lower, 4.43%
- O=C(Cc1ccc(Br)cc1)Nc1ccc(S(=O)(=O)Nc2ncccn2)cc1 — higher, 17.7%
- Cc1ccc(C(=O)N2CCN(c3ccc(NC(=S)NC(=O)Cc4ccccc4)cc3)CC2)cc1 — lower, -7.4%
- COc1ccc(S(=O)(=O)N2CCN(C(=S)NC3CCCCC3)CC2)cc1 — lower, 15.1%
- CC(=O)N[C@H](Cc1c[nH]c2ccccc12)C(=O)O — lower, 8.37%
- Cc1cccn2cc(COc3cccc([N+](=O)[O-])c3)nc12 — lower, 10.1%
- O=[N+]([O-])c1ccc(OCCCCN2CCCCC2)cc1 — lower, -59.4%
- Cc1ccc(NC2(C(F)(F)F)N=C(c3ccccc3)NC2=O)nc1 (stereo not shown) — lower, 9.98%
- CC(C)(C)SCCNC(=O)c1ccc(Cl)c(S(=O)(=O)N2CCOCC2)c1 — lower, 9.39%
- O=C(NCc1ccccc1Cl)c1cnccc1C(F)(F)F — lower, 8.28%
- Cc1ccc(OCC(=O)NNC(=O)C2CCCO2)c(C)c1 (stereo not shown) — lower, 11.7%
- COc1ccc(OC)c(S(=O)(=O)N(C)CC(=O)N2CCCCC2)c1 — lower, 2.23%
- Cc1ccc(S(=O)(=O)CC(C)(O)C(=O)Nc2cccc(C(F)(F)F)c2)cc1 (stereo not shown) — lower, 8.14%
- CCN(CC)C(=O)Cn1cc(C(=O)C(=O)N2CCCc3ccccc32)c2ccccc21 — lower, 1.99%
- O=C(CCc1ccncc1)N1CCCC(Nc2ccc(F)c(F)c2)C1 (stereo not shown) — lower, -3.19%
- O=C(COc1cccc(NC(=O)c2ccco2)c1)c1ccc(F)cc1 — lower, -3.08%
- O=C(c1cc(F)ccc1F)C1CCCN(C(=O)c2cccs2)C1 (stereo not shown) — lower, 10.1%
- O=C(O)c1cc2n(n1)C(C(F)(F)F)CC(c1ccccc1)N2 (stereo not shown) — higher, 18%
- CCCC(=O)Nc1ccc2nc(SCC(=O)N3CCCC3)sc2c1 — lower, 9.11%
- Cn1c(=O)[nH]c2c(Cl)nccc21 — lower, 10.4%
- O=C1CCC([N+](=O)[O-])C(c2cccc(Br)c2)N1 (stereo not shown) — lower, -8.83%
- COc1cccc(Cn2cc(N)cn2)c1 — higher, 17.4%
- Cc1cccc(CSc2ccc(S(=O)(=O)N3CCCC3)cn2)c1 — higher, 18%
- CCCCNC(=S)NNC(=O)c1c(Cl)c(C)nn1C — lower, 8.81%
- CCn1c(Cc2ccccc2)nnc1SCC(=O)Nc1ccc2c(c1)OCO2 — lower, 7.75%
- C=C(C)COc1ccc(-c2nc(N)ncc2-c2ccc(OC)c(OC)c2)c(O)c1 — lower, 6.14%
- O=C(Nc1cnccn1)c1ccncc1 — lower, -8.03%
- CCOc1ccc(Nc2n[nH]c(=S)s2)cc1 — higher, 17.5%
- O=P1(Nn2cnnc2)C=C(c2ccccc2)OC(c2ccccc2)=C1 — lower, -9.39%
- Cc1[nH]c2ccccc2c1Cc1n[nH]c(=S)o1 — lower, 12.1%
- COc1ccc(NC(=O)CS(=O)(=O)c2cn(CC(=O)N3CCOCC3)c3ccccc23)cc1OC — lower, 11.5%
- CCNc1sc(C(=O)OCC)c(N)c1C#N — higher, 16%
- CC(C)(CS(=O)(=O)[O-])NC(=O)CC[N+](C)(C)CCO — lower, 9.33%
- COc1ccc(-c2cc(C(=O)OCc3ccccn3)c3ccccc3n2)cc1 — higher, 16.8%
- COCC(=O)NCCc1nc(-c2ccccc2)cs1 — lower, 11.7%
- CCOC(=O)c1sc(NC(=O)CSc2nc3ccccc3s2)c(C(=O)OCC)c1C — higher, 16%
- c1coc(-c2nn3c(Cn4nnc5ccccc54)nnc3s2)c1 — lower, -3.47%
- COc1cccc(NC(=O)N2CCC(NC(=O)C(Cc3ccccc3F)NC(C)=O)CC2)c1 (stereo not shown) — lower, 9.79%
- COCCSc1ccccc1C(=O)Nc1ccncc1 — lower, 14.7%
- COc1ccc2oc(=O)c(C(=O)NC3CCCCCC3)cc2c1 — lower, 15.6%
- COc1cccc(CN2CC(C(=O)NCc3cccc(N4CCCC4)c3)CCC2=O)c1 (stereo not shown) — lower, 5.69%
- CCC12CN(S(=O)(=O)c3ccc(C)cc3)CC(CC)(CN(S(=O)(=O)c3ccc(C)cc3)C1)C2=O — lower, 3.9%
- COc1ccc(NC(C)=O)cc1S(=O)(=O)N1CCN(Cc2cccs2)CC1 — lower, 9.42%
- COc1ccc(C(=O)Nc2sc(C(=O)N(C)C)c(C)c2C#N)cc1[N+](=O)[O-] — lower, 12%
- CCCCN(CC)C(=O)CSc1nc2ccccc2c(=O)n1CC1COc2ccccc2O1 (stereo not shown) — lower, -0.268%
- CS(=O)(=O)N1CC(C(=O)O)Oc2ccc(CC(=O)O)cc21 (stereo not shown) — higher, 16.9%
- Cn1cnnc1SCC(=O)Nc1ccccc1C(=O)NC1CC1 — lower, 3.28%
- S=C(NCCSCc1ccc(Cl)cc1)Nc1ccccc1 — lower, 7.25%
- C=CCNC(=S)NNC(=O)c1ccc(OCC)cc1 — lower, 11.8%
- Cn1c(/C=C/c2ccc(Cl)cc2Cl)c([N+](=O)[O-])c(=O)n(C)c1=O — lower, 10.5%
- CC(=O)c1ccc(C(=O)Nc2nnc(-c3ccc(Cl)cc3)o2)cc1 — lower, 13.3%
- CC(=O)N(CCN1CCOCC1)Cc1cc2cc3c(cc2nc1Cl)OCO3 — lower, 11.9%
- Cc1ccc(Cl)cc1NC(=S)N(C)N — lower, 9.76%
- O=C(N/N=C/c1c(Cl)[nH]c2ccccc12)c1ccc2c(c1)OCCO2 — lower, 9.1%
- CC(=O)c1ccc(NC(=O)CCNS(=O)(=O)c2ccccc2F)cc1 — lower, 12.2%
- S=C(Nc1ccccc1)Nc1ccc(Br)cn1 — higher, 16.1%
- CCOC(=O)Nc1ccc(NS(=O)(=O)c2ccc(C)cc2)cc1 — lower, 1.61%
- CCCNC(=O)N1[C@H]2CC[C@@H]1C(C(=O)OC)=C(c1ccc(F)cc1OCc1ccccc1)C2 — lower, 11.9%
- COc1ccc(N2CCN(C(=O)CCC(=O)N3CC(C)Oc4ccccc43)CC2)cc1 (stereo not shown) — lower, -16.6%
- COc1cccc(/C=N/n2c(C)nc3ccccc32)c1OC — lower, 12.6%
- CCOC(=O)C1=C(C)NC(=O)NC1c1ccc(Cl)cc1Cl (stereo not shown) — lower, -2.13%
- CN(Cc1ccccc1)C(=O)c1ccc([N+](=O)[O-])o1 — lower, 11.4%
- Cc1ccc(Cn2c(CN(C)Cc3ccccc3)nc3c2c(=O)n(C)c(=O)n3C)cc1 — lower, 15.6%
- CCCN(CCC)C(=O)C(CCC(=O)[O-])NC(=O)c1ccccc1.[Na+] (stereo not shown) — lower, 5.45%
- NS(=O)(=O)c1cccc(NC(=O)Cc2ccc(Cl)c(Cl)c2)c1 — lower, 3.87%
- O=C(CN1CCN(c2ccc(F)cc2)CC1)NC(=O)NCc1ccco1 — lower, 5.56%
- Br.CC(=O)Nc1ccc(-c2csc(N/N=C\c3ccncc3)n2)cc1 — lower, 3.67%
- Cc1ccc(/C=N/n2c(-c3cccs3)n[nH]c2=S)cc1 — lower, 8.29%
- CC(=O)Nc1ccccc1NC(=O)CN(C)S(=O)(=O)c1ccc(C)cc1 — lower, 3.16%
- CN(C)c1ccc(S(=O)(=O)NCC(=O)OCC(=O)c2ccc[nH]2)cc1[N+](=O)[O-] — lower, 7.86%
